# Laboratory results published in patent US10344060B2 (priority 2013, dated 2019).
# Read-outs that look alike come from different tables or passages of the source. At least one structure is not confirmed: it was looked up by name or label, or the drawing left a doubt.
# Experiments:
# hNav1.7 = hNav1.7 (Homo sapiens, UniProt Q15858); type: cell-based; settings: read-out: PX hNav1.7 Tonic IC50
# hNav1.4 = hNav1.4 (Homo sapiens, UniProt P35499); type: cell-based; settings: read-out: PX hNav1.4 Tonic IC50
# Sequence of hNav1.4 (P35499 whole entry): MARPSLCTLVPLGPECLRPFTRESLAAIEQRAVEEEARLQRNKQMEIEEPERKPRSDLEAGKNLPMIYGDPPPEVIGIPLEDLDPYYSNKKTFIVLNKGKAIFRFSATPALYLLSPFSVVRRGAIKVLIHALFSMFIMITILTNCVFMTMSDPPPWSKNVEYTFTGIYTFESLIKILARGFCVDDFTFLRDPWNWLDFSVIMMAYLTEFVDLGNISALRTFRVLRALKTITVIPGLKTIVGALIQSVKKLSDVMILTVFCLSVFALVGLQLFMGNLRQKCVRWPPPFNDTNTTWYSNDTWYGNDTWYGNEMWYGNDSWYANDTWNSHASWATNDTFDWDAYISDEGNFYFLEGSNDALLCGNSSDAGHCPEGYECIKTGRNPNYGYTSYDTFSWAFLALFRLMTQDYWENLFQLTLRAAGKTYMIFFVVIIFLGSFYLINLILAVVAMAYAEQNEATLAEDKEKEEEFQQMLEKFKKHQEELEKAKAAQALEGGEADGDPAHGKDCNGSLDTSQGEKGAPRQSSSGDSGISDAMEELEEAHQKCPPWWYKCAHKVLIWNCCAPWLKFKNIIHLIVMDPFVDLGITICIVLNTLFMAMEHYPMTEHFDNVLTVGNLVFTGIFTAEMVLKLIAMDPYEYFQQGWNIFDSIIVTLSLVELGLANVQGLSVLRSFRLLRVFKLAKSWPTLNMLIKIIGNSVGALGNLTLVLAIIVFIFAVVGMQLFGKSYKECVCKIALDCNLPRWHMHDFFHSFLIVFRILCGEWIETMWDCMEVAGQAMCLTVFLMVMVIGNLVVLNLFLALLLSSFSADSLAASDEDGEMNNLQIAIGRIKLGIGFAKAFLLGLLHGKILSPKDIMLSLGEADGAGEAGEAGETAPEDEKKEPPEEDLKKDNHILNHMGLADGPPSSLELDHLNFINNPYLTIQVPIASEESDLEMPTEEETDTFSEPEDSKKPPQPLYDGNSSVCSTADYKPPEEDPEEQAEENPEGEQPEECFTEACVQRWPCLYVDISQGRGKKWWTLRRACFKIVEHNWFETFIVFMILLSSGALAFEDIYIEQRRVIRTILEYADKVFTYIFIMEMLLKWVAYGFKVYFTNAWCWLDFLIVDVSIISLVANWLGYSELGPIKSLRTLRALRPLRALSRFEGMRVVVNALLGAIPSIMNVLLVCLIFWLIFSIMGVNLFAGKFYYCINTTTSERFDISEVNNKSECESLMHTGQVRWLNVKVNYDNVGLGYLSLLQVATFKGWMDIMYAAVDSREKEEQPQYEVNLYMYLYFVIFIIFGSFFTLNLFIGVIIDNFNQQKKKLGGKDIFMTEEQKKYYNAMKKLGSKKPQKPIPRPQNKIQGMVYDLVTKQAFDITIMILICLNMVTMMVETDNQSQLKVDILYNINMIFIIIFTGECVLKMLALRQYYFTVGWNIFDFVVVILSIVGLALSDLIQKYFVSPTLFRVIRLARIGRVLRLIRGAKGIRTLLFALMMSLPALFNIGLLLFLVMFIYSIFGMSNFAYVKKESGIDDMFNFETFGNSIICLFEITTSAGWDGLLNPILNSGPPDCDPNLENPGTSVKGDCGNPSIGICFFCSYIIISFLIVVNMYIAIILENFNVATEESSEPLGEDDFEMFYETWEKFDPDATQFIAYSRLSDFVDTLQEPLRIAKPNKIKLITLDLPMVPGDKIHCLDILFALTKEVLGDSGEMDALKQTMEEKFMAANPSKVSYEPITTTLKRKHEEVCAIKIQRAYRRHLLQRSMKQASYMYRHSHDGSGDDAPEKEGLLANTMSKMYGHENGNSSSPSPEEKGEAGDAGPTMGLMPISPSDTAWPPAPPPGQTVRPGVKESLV
# Sequence of hNav1.7 (Q15858 whole entry): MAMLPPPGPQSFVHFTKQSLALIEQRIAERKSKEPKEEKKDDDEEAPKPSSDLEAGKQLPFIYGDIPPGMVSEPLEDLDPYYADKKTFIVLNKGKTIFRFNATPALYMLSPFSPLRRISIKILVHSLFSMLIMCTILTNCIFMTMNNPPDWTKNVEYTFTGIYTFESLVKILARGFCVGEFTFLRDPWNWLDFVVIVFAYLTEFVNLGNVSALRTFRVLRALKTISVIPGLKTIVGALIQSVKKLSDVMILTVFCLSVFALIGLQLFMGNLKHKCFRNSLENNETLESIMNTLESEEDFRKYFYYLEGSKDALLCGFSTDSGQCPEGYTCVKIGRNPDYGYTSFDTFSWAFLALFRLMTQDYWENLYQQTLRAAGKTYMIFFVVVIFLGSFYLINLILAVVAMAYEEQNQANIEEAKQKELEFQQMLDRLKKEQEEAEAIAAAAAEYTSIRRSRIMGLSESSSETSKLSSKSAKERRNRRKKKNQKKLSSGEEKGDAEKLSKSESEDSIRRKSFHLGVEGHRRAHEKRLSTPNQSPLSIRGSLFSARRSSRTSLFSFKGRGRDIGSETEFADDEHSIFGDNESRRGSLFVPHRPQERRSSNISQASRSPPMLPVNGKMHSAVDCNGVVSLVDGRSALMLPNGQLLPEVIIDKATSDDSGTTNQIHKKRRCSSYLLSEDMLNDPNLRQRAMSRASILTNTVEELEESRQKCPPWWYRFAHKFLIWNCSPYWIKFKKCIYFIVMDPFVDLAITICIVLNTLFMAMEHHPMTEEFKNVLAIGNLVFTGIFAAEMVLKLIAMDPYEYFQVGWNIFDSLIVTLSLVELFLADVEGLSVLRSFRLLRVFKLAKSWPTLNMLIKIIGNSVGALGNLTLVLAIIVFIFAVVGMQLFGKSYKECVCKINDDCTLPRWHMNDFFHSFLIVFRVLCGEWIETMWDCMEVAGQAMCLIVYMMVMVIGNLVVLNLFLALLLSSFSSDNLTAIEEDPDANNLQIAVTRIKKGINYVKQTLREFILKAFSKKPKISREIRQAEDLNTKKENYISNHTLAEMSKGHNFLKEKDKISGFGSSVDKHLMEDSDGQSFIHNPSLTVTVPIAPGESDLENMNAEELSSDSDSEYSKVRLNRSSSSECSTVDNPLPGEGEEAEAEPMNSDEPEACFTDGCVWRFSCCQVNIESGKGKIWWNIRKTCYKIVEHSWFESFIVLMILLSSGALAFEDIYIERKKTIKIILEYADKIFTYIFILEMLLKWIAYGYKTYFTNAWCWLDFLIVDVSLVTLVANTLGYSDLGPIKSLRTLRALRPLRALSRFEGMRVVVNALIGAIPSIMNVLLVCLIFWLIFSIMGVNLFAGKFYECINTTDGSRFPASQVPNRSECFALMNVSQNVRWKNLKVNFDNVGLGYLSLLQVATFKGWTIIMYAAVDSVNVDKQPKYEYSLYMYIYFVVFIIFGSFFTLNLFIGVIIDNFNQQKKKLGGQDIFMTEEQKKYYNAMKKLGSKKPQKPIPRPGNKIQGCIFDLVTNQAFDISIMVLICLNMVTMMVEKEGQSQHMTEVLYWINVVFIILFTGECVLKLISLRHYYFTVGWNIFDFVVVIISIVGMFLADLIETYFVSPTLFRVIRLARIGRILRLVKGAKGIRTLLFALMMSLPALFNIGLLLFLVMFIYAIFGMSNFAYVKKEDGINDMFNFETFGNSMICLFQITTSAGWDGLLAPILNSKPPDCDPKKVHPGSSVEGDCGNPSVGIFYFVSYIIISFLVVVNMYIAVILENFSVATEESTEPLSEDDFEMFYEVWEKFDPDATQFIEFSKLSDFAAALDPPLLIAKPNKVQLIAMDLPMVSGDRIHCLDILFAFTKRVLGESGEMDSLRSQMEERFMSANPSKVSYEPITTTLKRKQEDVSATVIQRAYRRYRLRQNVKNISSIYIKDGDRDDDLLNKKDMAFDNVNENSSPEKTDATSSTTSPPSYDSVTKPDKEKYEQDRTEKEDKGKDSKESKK
SMILES,IC50 (hNav1.7) [nM],IC50 (hNav1.4) [nM],"IC50 (hNav1.7; PatchXpress, tonic, Table 11) [nM]","IC50 (hNav1.4; PatchXpress, tonic, Table 11) [nM]"
CCCC[C@@H]1NC(=O)[C@H](Cc2c[nH]c3ccccc23)NC(=O)[C@H](CCCCN)NC(=O)[C@H](CCC(N)=O)NC(=O)[C@@H](NC(=O)[C@H](Cc2ccc(O)cc2)NC(=O)[C@@H](N)Cc2cn(CCOCCOCCOCCOCCOCCOCCOCCOCCOCCOCCOCCOCCOCCOCCOCCOCCOCCOCCOCCOCCOCCOCCOCCNC(=O)c3cc(CN)cc(C(=O)NCCOCCOCCOCCOCCOCCOCCOCCOCCOCCOCCOCCOCCOCCOCCOCCOCCOCCOCCOCCOCCOCCOCCOCCn4cc(C[C@H](N)C(=O)N[C@@H](Cc5ccc(O)cc5)C(=O)N[C@H]5CSSC[C@@H]6NC(=O)[C@@H]7CSSC[C@@H](C(=O)N[C@@H](CCCNC(=N)N)C(=O)N[C@@H](CCCCN)C(=O)N[C@@H](CCC(=O)O)C(=O)N[C@H](C(N)=O)[C@@H](C)CC)NC(=O)[C@H](Cc8c[nH]c9ccccc89)NC(=O)[C@H](CC(C)C)NC(=O)[C@H](CCCCN)NC(=O)[C@H](CSSC[C@H](NC(=O)[C@H]([C@@H](C)O)NC(=O)[C@H](Cc8c[nH]c9ccccc89)NC(=O)[C@H](CCCC)NC(=O)[C@H](Cc8c[nH]c9ccccc89)NC(=O)[C@H](CCCCN)NC(=O)[C@H](CCC(N)=O)NC5=O)C(=O)N[C@@H](CC(=O)O)C(=O)N[C@@H](CO)C(=O)N[C@@H](CCCCN)C(=O)N[C@@H](CCCNC(=N)N)C(=O)N[C@@H](C)C(=O)N7)NC(=O)[C@H](CCCNC(=N)N)NC(=O)[C@H](CC(C)C)NC(=O)CNC(=O)[C@H](CCC(=O)O)NC6=O)nn4)c3)nn2)CSSC[C@@H]2NC(=O)[C@@H]3CSSC[C@@H](C(=O)N[C@@H](CCCNC(=N)N)C(=O)N[C@@H](CCCCN)C(=O)N[C@@H](CCC(=O)O)C(=O)N[C@H](C(N)=O)[C@@H](C)CC)NC(=O)[C@H](Cc4c[nH]c5ccccc45)NC(=O)[C@H](CC(C)C)NC(=O)[C@H](CCCCN)NC(=O)[C@H](CSSC[C@H](NC(=O)[C@H]([C@@H](C)O)NC(=O)[C@H](Cc4c[nH]c5ccccc45)NC1=O)C(=O)N[C@@H](CC(=O)O)C(=O)N[C@@H](CO)C(=O)N[C@@H](CCCCN)C(=O)N[C@@H](CCCNC(=N)N)C(=O)N[C@@H](C)C(=O)N3)NC(=O)[C@H](CCCNC(=N)N)NC(=O)[C@H](CC(C)C)NC(=O)CNC(=O)[C@H](CCC(=O)O)NC2=O [Homodimeric Conjugate No. 7],2.12,200,–,–
CCCC[C@@H]1NC(=O)[C@H](Cc2c[nH]c3ccccc23)NC(=O)[C@H](CCCCN)NC(=O)[C@H](CCC(N)=O)NC(=O)[C@@H](NC(=O)[C@H](Cc2ccc(O)cc2)NC(=O)[C@@H](N)CC#N)CSSC[C@@H]2NC(=O)[C@@H]3CSSC[C@@H](C(=O)N[C@@H](CCCNC(=N)N)C(=O)N[C@@H](CCCCN)C(=O)N[C@@H](CCC(=O)O)C(=O)N[C@@H](Cc4c[nH]c5ccccc45)C(N)=O)NC(=O)[C@H](Cc4c[nH]c5ccccc45)NC(=O)[C@H](CC(C)C)NC(=O)[C@H](CCCCN)NC(=O)[C@H](CSSC[C@H](NC(=O)[C@H]([C@@H](C)O)NC(=O)[C@H](Cc4c[nH]c5ccccc45)NC1=O)C(=O)N[C@@H](CC(=O)O)C(=O)N[C@@H](CO)C(=O)N[C@@H](CCCCN)C(=O)N[C@@H](CCCNC(=N)N)C(=O)N[C@@H](C)C(=O)N3)NC(=O)[C@H](CCCNC(=N)N)NC(=O)[C@H](CC(C)C)NC(=O)CNC(=O)[C@H](CCCCNC(=O)CCOCCOCCOCCOCCOCCOCCOCCOCCOCCOCCOCCOCCN)NC2=O [compound 459],–,–,9.08,247
CCCC[C@@H]1NC(=O)[C@H](Cc2c[nH]c3ccccc23)NC(=O)[C@H](CCCCN)NC(=O)[C@H](CCC(N)=O)NC(=O)[C@@H](NC(=O)[C@H](Cc2ccc(O)cc2)NC(=O)[C@@H](N)CC(C)C)CSSC[C@@H]2NC(=O)[C@@H]3CSSC[C@@H](C(=O)N[C@@H](CCCNC(=N)N)C(=O)N[C@@H](CCCCN)C(=O)N[C@@H](CCC(=O)O)C(=O)N[C@H](C(N)=O)[C@@H](C)CC)NC(=O)[C@H](Cc4c[nH]c5ccccc45)NC(=O)[C@H](CC(C)C)NC(=O)[C@H](CCCCN)NC(=O)[C@H](CSSC[C@H](NC(=O)[C@H]([C@@H](C)O)NC(=O)[C@H](Cc4c[nH]c5ccccc45)NC1=O)C(=O)N[C@@H](CC(=O)O)C(=O)N[C@@H](CO)C(=O)N[C@@H](CCCCN)C(=O)N[C@@H](CCCNC(=N)N)C(=O)N[C@@H](C)C(=O)N3)NC(=O)[C@H](CCCNC(=N)N)NC(=O)[C@H](CC(C)C)NC(=O)CNC(=O)[C@H](CCCCNC(=O)CCOCCOCCOCCOCCOCCOCCOCCOCCOCCOCCOCCOCCN)NC2=O [compound 462],–,–,17.4,355
CCCC[C@@H]1NC(=O)[C@H](Cc2c[nH]c3ccccc23)NC(=O)[C@H](CCCCN)NC(=O)[C@H](CCC(N)=O)NC(=O)[C@@H](NC(=O)[C@H](Cc2ccc(O)cc2)NC(=O)[C@H](N)CC(C)C)CSSC[C@@H]2NC(=O)[C@@H]3CSSC[C@@H](C(=O)N[C@@H](CCCNC(=N)N)C(=O)N[C@@H](CCCCN)C(=O)N[C@@H](CCC(=O)O)C(=O)N[C@H](C(N)=O)[C@@H](C)CC)NC(=O)[C@H](Cc4c[nH]c5ccccc45)NC(=O)[C@H](CC(C)C)NC(=O)[C@H](CCCCN)NC(=O)[C@H](CSSC[C@H](NC(=O)[C@H]([C@@H](C)O)NC(=O)[C@H](Cc4c[nH]c5ccccc45)NC1=O)C(=O)N[C@@H](CC(=O)O)C(=O)N[C@@H](CO)C(=O)N[C@@H](CCCCN)C(=O)N[C@@H](CCCNC(=N)N)C(=O)N[C@@H](C)C(=O)N3)NC(=O)[C@H](CCCNC(=N)N)NC(=O)[C@H](CC(C)C)NC(=O)CNC(=O)[C@H](CCCCNC(=O)CCOCCOCCOCCOCCOCCOCCOCCOCCOCCOCCOCCOCCN)NC2=O [compound 464],–,–,24.1,434
CCCC[C@@H]1NC(=O)[C@H](Cc2c[nH]c3ccccc23)NC(=O)[C@H](CCCCN)NC(=O)[C@H](CCC(N)=O)NC(=O)[C@@H](NC(=O)[C@H](Cc2ccc(O)cc2)NC(=O)[C@H](CC(C)C)NC)CSSC[C@@H]2NC(=O)[C@@H]3CSSC[C@@H](C(=O)N[C@@H](CCCNC(=N)N)C(=O)N[C@@H](CCCCN)C(=O)N[C@@H](CCC(=O)O)C(=O)N[C@H](C(N)=O)[C@@H](C)CC)NC(=O)[C@H](Cc4c[nH]c5ccccc45)NC(=O)[C@H](CC(C)C)NC(=O)[C@H](CCCCN)NC(=O)[C@H](CSSC[C@H](NC(=O)[C@H]([C@@H](C)O)NC(=O)[C@H](Cc4c[nH]c5ccccc45)NC1=O)C(=O)N[C@@H](CC(=O)O)C(=O)N[C@@H](CO)C(=O)N[C@@H](CCCCN)C(=O)N[C@@H](CCCNC(=N)N)C(=O)N[C@@H](C)C(=O)N3)NC(=O)[C@H](CCCNC(=N)N)NC(=O)[C@H](CC(C)C)NC(=O)CNC(=O)[C@H](CCCCNC(=O)CCOCCOCCOCCOCCOCCOCCOCCOCCOCCOCCOCCOCCN)NC2=O [compound 466],–,–,20.1,390
CCCC[C@@H]1NC(=O)[C@H](Cc2c[nH]c3ccccc23)NC(=O)[C@H](CCCCN)NC(=O)[C@H](CC(C)C)NC(=O)[C@@H](NC(=O)[C@H](Cc2ccc(O)cc2)NC(=O)[C@@H](N)CC#N)CSSC[C@@H]2NC(=O)[C@@H]3CSSC[C@@H](C(=O)N[C@@H](CCCNC(=N)N)C(=O)N[C@@H](CCCCN)C(=O)N[C@@H](CCC(=O)O)C(=O)N[C@H](C(N)=O)[C@@H](C)CC)NC(=O)[C@H](Cc4c[nH]c5ccccc45)NC(=O)[C@H](CC(C)C)NC(=O)[C@H](CCCCN)NC(=O)[C@H](CSSC[C@H](NC(=O)[C@H]([C@@H](C)O)NC(=O)[C@H](Cc4c[nH]c5ccccc45)NC1=O)C(=O)N[C@@H](CC(=O)O)C(=O)N[C@@H](CO)C(=O)N[C@@H](CCCCN)C(=O)N[C@@H](CCCNC(=N)N)C(=O)N[C@@H](C)C(=O)N3)NC(=O)[C@H](CCCNC(=N)N)NC(=O)[C@H](CC(C)C)NC(=O)CNC(=O)[C@H](CCCCNC(=O)CCOCCOCCOCCOCCOCCOCCOCCOCCOCCOCCOCCOCCN)NC2=O [compound 549],–,–,> 1000,> 10000
CCCC[C@@H]1NC(=O)[C@H](Cc2c[nH]c3ccccc23)NC(=O)[C@H](CCCCN)NC(=O)[C@H](CCC(N)=O)NC(=O)[C@@H](NC(=O)[C@H](Cc2ccccc2)NC(=O)[C@@H](N)CC#N)CSSC[C@@H]2NC(=O)[C@@H]3CSSC[C@@H](C(=O)N[C@@H](CCCNC(=N)N)C(=O)N[C@@H](CCCCN)C(=O)N[C@@H](CCC(=O)O)C(=O)N[C@H](C(N)=O)[C@@H](C)CC)NC(=O)[C@H](Cc4c[nH]c5ccccc45)NC(=O)[C@H](CC(C)C)NC(=O)[C@H](CCCCN)NC(=O)[C@H](CSSC[C@H](NC(=O)[C@H]([C@@H](C)O)NC(=O)[C@H](Cc4c[nH]c5ccccc45)NC1=O)C(=O)N[C@@H](CC(=O)O)C(=O)N[C@@H](CO)C(=O)N[C@@H](CCCCN)C(=O)N[C@@H](CCCNC(=N)N)C(=O)N[C@@H](C)C(=O)N3)NC(=O)[C@H](CCCNC(=N)N)NC(=O)[C@H](CC(C)C)NC(=O)CNC(=O)[C@H](CCCCNC(=O)CCOCCOCCOCCOCCOCCOCCOCCOCCOCCOCCOCCOCCN)NC2=O [compound 551],–,–,20.8,268
CCCC[C@@H]1NC(=O)[C@H](Cc2c[nH]c3ccccc23)NC(=O)[C@H](CCCCN)NC(=O)[C@H](CCC(N)=O)NC(=O)[C@@H](NC(=O)[C@H](Cc2ccc(O)cc2)NC(=O)[C@@H](N)CC#N)CSSC[C@@H]2NC(=O)[C@@H]3CSSC[C@@H](C(=O)N[C@@H](CCCNC(=N)N)C(=O)N[C@@H](CCCCN)C(=O)N[C@@H](CCC(=O)O)C(=O)N[C@H](C(N)=O)[C@@H](C)CC)NC(=O)[C@H](Cc4c[nH]c5ccccc45)NC(=O)[C@H](CC(C)C)NC(=O)[C@H](CCCCN)NC(=O)[C@H](CSSC[C@H](NC(=O)[C@H]([C@@H](C)O)NC(=O)[C@H](Cc4c[nH]c5ccccc45)NC1=O)C(=O)N[C@@H](CC(=O)O)C(=O)N[C@@H](CO)C(=O)N[C@@H](CCCCN)C(=O)N[C@@H](CCCNC(=N)N)C(=O)N[C@@H](C)C(=O)N3)NC(=O)[C@H](CCCNC(=N)N)NC(=O)[C@H](CC(C)C)NC(=O)CNC(=O)[C@H](Cc1cn(CCCCC(=O)NCC(=O)NCC(=O)NCC(=O)NCC(=O)N[C@@H](CO)C(=O)NCC(=O)NCC(=O)NCC(=O)NCC(=O)N[C@@H](CO)C(=O)N[C@@H](CO)C(=O)N[C@@H](CC(C)C)C(=O)N[C@@H](CCC(N)=O)C(=O)N[C@@H](CCCCN)C(=O)N[C@@H](C)C(=O)N[C@@H](CO)C(=O)NCC(=O)N[C@@H](C)C(=O)N[C@@H](CC(C)C)C(=O)N[C@@H](CCC(=O)O)C(=O)N[C@@H](Cc3c[nH]cn3)C(=O)N[C@@H](Cc3c[nH]cn3)C(=O)N[C@@H](Cc3c[nH]cn3)C(=O)N[C@@H](Cc3c[nH]cn3)C(=O)N[C@@H](Cc3c[nH]cn3)C(=O)N[C@@H](Cc3c[nH]cn3)C(=O)N[C@@H](Cc3c[nH]cn3)C(=O)N[C@@H](Cc3c[nH]cn3)C(=O)O)nn1)NC2=O [compound 897],34.3,–,–,–
